# Source: PubChem BioAssay (Tox21)
# Values joined by “and” are separate entries in the source; they are usually repeats but may differ in a detail not shown here. Equal entries are not always repeated. The inconclusive results got no clear call from the source; some entries with a clear call stand among them for comparison. A potency beside an inconclusive call is a rough fit, not a confirmed value. Active and inactive are the calls of the source. The call rests on the fitted dose curve; in most records, active means well fitted cell-killing curve with a large enough effect in the repeat runs; inconclusive means weak or mixed curves, or effect the other way; inactive means no such curve, though single readings can be large or run the other way.
# Test: qHTS assay to identify small molecule antagonists of the peroxisome proliferator-activated receptor gamma (PPARg) signaling pathway - cell viability counter screen (AID 743194); further: nearly all actives have a fitted effect of over 55% in size
# Conditions: PPARg-bla HEK293H viability, CellTiter-Glo luminescence, 17 h, co-treated with 50 nM rosiglitazone; activity change, negative = cytotoxicity: at 62.6 µM (top of the series) unless noted
# Method in brief: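 Viability was measured as CellTiter-Glo luminescence in GeneBLAzer PPARg UAS-bla HEK293H cells. These cells had been exposed 17 h at 37 C to compounds together with rosiglitazone at 50 nM final, with the beta-lactamase readout taken in the same wells.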
# On the % scale 0 is the no-effect control and ±100 the full control effect; potency means the concentration at half of the fitted maximal effect; tags describe the fitted curve by direction and shape.
Structure (SMILES),"activity change, negative = cytotoxicity",Potency
CCC(=O)C1CC(C(C)C)CC=C1C (stereo not given),inactive: -0.423%,–
Cc1ccccc1N=C(N)Nc1ccccc1C,inactive: 2.88%,–
CCCCCCCCC=O,–,"inconclusive: 1.95 µM [cytotoxic, full curve, poor fit]"
CNC(=O)c1ccccc1Sc1ccc2c(/C=C/c3ccccn3)n[nH]c2c1,–,"inconclusive: 21.1 µM [cytotoxic, partial curve]"
CN1CCCC1=O,–,"inconclusive: 0.452 µM [cytotoxic, full curve, poor fit]"
C=C[Si](OC(=C)C)(OC(=C)C)OC(=C)C,inactive: 3.79%,–
CC(=O)c1ccc([N+](=O)[O-])cc1,inactive: -2.73%,–
Cc1c(O)cccc1C(=O)N[C@@H](CSc1ccccc1)[C@H](O)CN1C[C@H]2CCCC[C@H]2C[C@H]1C(=O)NC(C)(C)C,–,active: 21.3 µM and active: 26.6 µM
CC[C@H]1CN2CCc3cc(OC)c(OC)cc3[C@@H]2C[C@@H]1C[C@H]1NCCc2cc(OC)c(OC)cc21,–,"inconclusive: 874 nM [cytotoxic, full curve] and inconclusive: 2.66 µM [cytotoxic, full curve, poor fit]"
CN1CCCN=C1COC(=O)C(O)(c1ccccc1)C1CCCCC1 (stereo not given),–,"inconclusive: 13.3 µM [cytotoxic, partial curve, poor fit]"
Cc1ccc(C(C)(C)O)cc1,inactive: 6.18%,–
C(=C\c1ccccc1)/c1ccccc1,–,"inconclusive: 4.33 µM [rising, full curve, poor fit]"
O=c1cc[nH]c(=O)[nH]1,–,"inconclusive: 0.491 µM [rising, single point]"
CCCCCCCC/C=C\CCCCCCCC(=O)OCC,–,"inconclusive: 21.9 µM [rising, single point]"
CCCCCCCCOS(=O)(=O)O,inactive: -0.986%,–
Cc1ccc(NC(N)=O)cc1,inactive: -16.9% [at 81.1 µM],–
CCCc1ccc(OC)cc1,inactive: -2.91% [at 81.1 µM],–
C=C[C@H]1CN2CC[C@H]1C[C@@H]2[C@@H](O)c1ccnc2ccc(OC)cc12,–,"inconclusive: 7.5 µM [cytotoxic, partial curve, poor fit]"
Clc1sc(Cl)c(Cl)c1Cl,inactive: -23.4%,–
O=Cc1ccc(F)cc1,inactive: -3.53%,–
C/C=C/c1ccc(O)c(OC)c1,–,"inconclusive: 33.5 µM [rising, single point]"
CN(C)c1ccc(N=NS(=O)(=O)O)cc1,–,"inconclusive: 51.6 µM [rising, single point]"
COc1cccc(OC)c1C(=O)O,–,"inconclusive: 0.0174 µM [rising, full curve, poor fit]"
[Cl][In]([Cl])[Cl],–,"inconclusive: 1.79 µM [cytotoxic, full curve, poor fit] and inconclusive: 5.49 µM [cytotoxic, full curve, poor fit]"
CC(O)CN(CCN(CC(C)O)CC(C)O)CC(C)O (stereo not given),–,"inconclusive: 22.2 µM [rising, single point]"
CCCCCCCCCCCC(=O)OC,–,"inconclusive: 19.5 µM [rising, partial curve, poor fit]"
CN(C)CCOC(c1ccccc1)c1ccccc1 (tested in a mixture with another compound),inactive: -20.9% [at 81.1 µM],–
CNC[C@H](O)[C@@H](O)[C@H](O)[C@H](O)CO,–,"inconclusive: 0.0692 µM [rising, full curve, poor fit]"
CNCCC(Oc1ccc(C(F)(F)F)cc1)c1ccccc1 (stereo not given),–,"inconclusive: 16.8 µM [cytotoxic, partial curve]"
CC(CO)CO,–,"inconclusive: 2.33 µM [rising, full curve]"
